Results: ChEMBL document CHEMBL5050857, “Mettl3 modulators” (2021)

Tests used:
[1] = molecular target: N6-adenosine-methyltransferase catalytic subunit (Homo sapiens, UniProt Q86U44); assay: Inhibition of METTL3 (unknown origin) using UCUGGACUAAA-biotin and 3H-SAM as substrates preincubated for 5 mins followed by substrate addition incubated for 30 mins by TopCount scintillation counting method
[2] = Inhibition of METTL16 (unknown origin) using CGAUACAGAGAAGAUUAGCAUACGCAAAUUCGUGAAGCG-biotin and SAM as substrates preincubated for 5 mins followed by substrate addition incubated for 220 mins by TopCount scintillation counting method; set-up: species or system Homo sapiens
MOLM-13 [3] = assay: Antiproliferative activity against human MOLM-13 cells after 96 hrs by Cell Titer-Glo assay; assay type: functional, cell-based; conditions: MOLM-13, 96 h
MOLM-13 [4] = assay: Antiproliferative activity against human MOLM-13 cells after 48 hrs by Cell Titer-Glo assay; assay type: functional, cell-based; conditions: MOLM-13, 48 h

Sequence of UniProt Q86U44 (Q86U44 whole entry): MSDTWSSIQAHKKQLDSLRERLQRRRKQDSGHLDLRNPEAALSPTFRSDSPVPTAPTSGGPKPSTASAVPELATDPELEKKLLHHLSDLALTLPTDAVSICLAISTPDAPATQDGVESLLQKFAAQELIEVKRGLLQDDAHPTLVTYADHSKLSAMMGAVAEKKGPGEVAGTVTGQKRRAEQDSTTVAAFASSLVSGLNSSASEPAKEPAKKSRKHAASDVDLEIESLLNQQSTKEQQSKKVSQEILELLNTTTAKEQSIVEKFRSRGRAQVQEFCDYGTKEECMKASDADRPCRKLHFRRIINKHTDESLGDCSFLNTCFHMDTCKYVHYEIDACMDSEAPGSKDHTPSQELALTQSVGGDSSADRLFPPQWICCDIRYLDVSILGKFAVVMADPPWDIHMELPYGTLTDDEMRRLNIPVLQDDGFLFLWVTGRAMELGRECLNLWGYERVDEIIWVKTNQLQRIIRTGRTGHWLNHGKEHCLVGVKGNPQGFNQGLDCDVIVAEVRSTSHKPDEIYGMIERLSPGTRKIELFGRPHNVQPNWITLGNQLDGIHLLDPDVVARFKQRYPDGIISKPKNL

Structure (SMILES)	IC50 [1]	IC50 [2]	IC50 (MOLM-13 [3])	IC50 (MOLM-13 [4])
Nc1nc2ccc(OC[C@H]3O[C@@H](n4cc(Br)c5c(N)ncnc54)[C@@H](F)[C@@H]3O)cc2[nH]1	≤ 1000 nM	≥ 1000 nM		
CNc1ccc2ccc(OC[C@H]3O[C@@H](n4cc(-c5cnn(C)c5)c5c(N)ncnc54)[C@@H](F)[C@@H]3O)cc2n1	≤ 100 nM	≥ 1000 nM		
CNc1ccc2ccc(OC[C@H]3O[C@@H](n4cc(-c5cc(F)cc(F)c5)c5c(N)ncnc54)[C@@H](F)[C@@H]3O)cc2n1	≤ 1000 nM	≥ 1000 nM		
Nc1ncnc2c1ccn2[C@@H]1C[C@H](COc2ccc3ccc(N4CCCC4)nc3c2)[C@@H](O)[C@H]1O	≤ 1000 nM	≥ 1000 nM		
Cc1cc(N)c2ccc(OC[C@H]3O[C@@H](n4cc(Br)c5c(N)ncnc54)C[C@@H]3O)cc2n1	≤ 1000 nM	≥ 1000 nM	≥ 10000 nM	
Cn1ccnc1-c1ccc2ccc(OC[C@H]3O[C@@H](n4cc(Br)c5c(N)ncnc54)[C@@H](F)[C@@H]3O)cc2n1	≥ 1000 nM	≥ 1000 nM		
CNc1ccc2ccc(OC[C@H]3O[C@@H](n4cc(Br)c5c(N)nc(N)nc54)[C@@H](F)[C@@H]3O)cc2n1	≤ 1000 nM	≥ 1000 nM		
CN(C)Cc1cccc(OC[C@H]2O[C@@H](n3cc(Br)c4c(N)ncnc43)[C@@H](F)[C@@H]2O)c1	≥ 1000 nM	≥ 1000 nM		
Cc1cn2cc(CC[C@H]3C[C@@H](n4ccc5c(N)ncnc54)[C@H](O)[C@@H]3O)ccc2n1	≥ 1000 nM	≥ 1000 nM		
CNc1ccc2ccc(OC[C@H]3O[C@@H](n4cc(-c5cccnc5)c5c(N)ncnc54)[C@@H](F)[C@@H]3O)cc2n1	≤ 100 nM	≥ 1000 nM		
CCc1cc(NCCOC)c2ncc(OC[C@H]3O[C@@H](n4cc(-c5ccn(C)n5)c5c(N)ncnc54)[C@H](O)[C@@H]3O)cc2n1	< 10 nM		1000 nM	≥ 10000 nM
CN(CCO)c1ccc2ccc(OC[C@H]3O[C@@H](n4cc(-c5ccn(C)n5)c5c(N)ncnc54)[C@@H](F)[C@@H]3O)cc2n1	< 10 nM		< 1000 nM	1000 nM
Nc1ncnc2c1c(-n1cccn1)cn2[C@H]1C[C@H](O)[C@@H](COc2ccc3ccc(N4CCC4)nc3c2)O1	< 10 nM		1000 nM	1000 nM
CNc1ccc2ccc(OC[C@H]3O[C@@H](n4ccc5c(N)nc(C(=O)OC)nc54)[C@@H](F)[C@@H]3O)cc2n1	≥ 1000 nM	≥ 1000 nM		
CCc1cc(N2CCOCC2)c2ccc(OC[C@H]3O[C@@H](n4cc(-c5ccn(C)n5)c5c(N)ncnc54)[C@@H](F)[C@@H]3O)cc2n1	< 10 nM		< 1000 nM	1000 nM
CCc1cc(N(C)C2CC2)c2ccc(OC[C@H]3O[C@@H](n4cc(-c5ccn(C)n5)c5c(N)ncnc54)[C@@H](F)[C@@H]3O)cc2n1	< 10 nM		1000 nM	1000 nM
Nc1ncnc2c1ccn2[C@@H]1C[C@H](CCc2ccc3ccc(N4CCCC4)nc3c2)[C@@H](O)[C@H]1O	≤ 1000 nM	≥ 1000 nM		
CNc1ccc2ccc(OC[C@H]3O[C@@H](n4cc(-c5ccnn5C)c5c(N)ncnc54)[C@@H](F)[C@@H]3O)cc2n1	≤ 100 nM	≥ 1000 nM		
Cn1ccc(-c2cn([C@@H]3O[C@H](COc4ccc5ccc(N6CC(N)C6)nc5c4)[C@@H](O)[C@@H]3F)c3ncnc(N)c23)n1	< 10 nM		< 1000 nM	< 1000 nM
CCc1cc(N(C)C)c2ccc(OC[C@H]3O[C@@H](n4cc(-c5ccn(C)n5)c5c(N)ncnc54)[C@@H](F)[C@@H]3O)cc2n1	< 10 nM		< 1000 nM	1000 nM
CNc1ccc2ccc(OC[C@@H]3C[C@@H](O)[C@H](n4cc(C5CCCC5)c5c(N)ncnc54)O3)cc2n1	≤ 1000 nM	≥ 1000 nM		

Further lines, with some results ahead:

IC50 [1]	IC50 [2]	Structure (SMILES)	IC50 (MOLM-13 [3])	IC50 (MOLM-13 [4])
≤ 100 nM	≥ 1000 nM	Nc1ncnc2c1c(Br)cn2[C@@H]1O[C@H](COc2ccc3ccc(N4CCCC4)nc3c2)[C@@H](O)[C@H]1O		
≤ 1000 nM	≥ 1000 nM	CNc1ccc2ccc(OC[C@H]3O[C@@H](n4cc(Br)c5c(N)nccc54)[C@@H](F)[C@@H]3O)cc2n1		
≤ 100 nM	≥ 1000 nM	CNc1ccc2ccc(OC[C@H]3O[C@@H](n4cc(C5=CCN(C)CC5)c5c(N)ncnc54)[C@@H](F)[C@@H]3O)cc2n1		
≤ 100 nM	≥ 1000 nM	Nc1ncnc2c1ccn2[C@@H]1O[C@H](CCc2ccc3ccc(N4CCCC4)nc3c2)[C@@H](O)[C@H]1O	1000 nM	
≤ 100 nM	≥ 1000 nM	CCNc1ccc2ccc(CC[C@H]3O[C@@H](n4ccc5c(N)ncnc54)[C@H](O)[C@@H]3O)cc2n1		
≤ 100 nM	≥ 1000 nM	CNc1ccc2ccc(OC[C@H]3O[C@@H](n4cc(C(F)(F)F)c5c(N)ncnc54)[C@@H](F)[C@@H]3O)cc2n1		
≤ 100 nM	≥ 1000 nM	Cc1cc(N)c2ccc(OC[C@H]3O[C@@H](n4cc(Br)c5c(N)ncnc54)[C@@H](F)[C@@H]3O)cc2n1		
≤ 100 nM	≥ 1000 nM	CNc1ccc2ccc(OC[C@H]3O[C@@H](n4cc(C5CCN(C)CC5)c5c(N)ncnc54)[C@@H](F)[C@@H]3O)cc2n1		
≤ 100 nM	≥ 1000 nM	Nc1ccc2ccc(OC[C@H]3O[C@@H](n4cc(Br)c5c(N)ncnc54)[C@H](O)[C@@H]3O)cc2n1		
≤ 100 nM	≥ 1000 nM	CCc1cc(N)c2ccc(OC[C@H]3O[C@@H](n4cc(Br)c5c(N)ncnc54)[C@@H](F)[C@@H]3O)cc2n1		
≤ 100 nM	≥ 1000 nM	CNc1ccc2ccc(OC[C@H]3C[C@@H](n4cc(C5CCCC5)c5c(N)ncnc54)C[C@@H]3O)cc2n1		
≤ 100 nM	≥ 1000 nM	CNc1ccc2ccc(OC[C@H]3O[C@@H](n4cc(C)c5c(N)ncnc54)[C@@H](F)[C@@H]3O)cc2n1		
< 10 nM		CNc1ccc2ccc(OC[C@H]3O[C@@H](n4cc([C@@H]5CCCO5)c5c(N)ncnc54)[C@@H](F)[C@@H]3O)cc2n1	< 1000 nM	1000 nM
≤ 100 nM	≥ 1000 nM	Nc1cc(C2CC2)nc2cc(OC[C@H]3O[C@@H](n4cc(Br)c5c(N)ncnc54)[C@@H](F)[C@@H]3O)ccc12		
< 10 nM		Nc1ncnc2c1ccn2[C@H]1C[C@H](O)[C@@H](COc2ccc3ccc(N4CCC4)nc3c2)O1	1000 nM	≥ 10000 nM
≤ 100 nM	≥ 1000 nM	Nc1cc(N)c2ccc(OC[C@H]3O[C@@H](n4cc(C5CCCC5)c5c(N)ncnc54)[C@H](O)[C@@H]3O)cc2n1		
≤ 100 nM		Nc1ccc2ccc(CC[C@H]3C[C@@H](n4cc(C5CCCC5)c5c(N)ncnc54)[C@H](O)[C@@H]3O)cc2n1	< 1000 nM	1000 nM
< 10 nM	≥ 1000 nM	CCNc1ccc2ccc(OC[C@H]3O[C@@H](n4ccc5c(N)ncnc54)[C@H](O)[C@@H]3O)cc2n1		
≤ 100 nM	≥ 1000 nM	CNc1ccc2ccc(OC[C@H]3O[C@@H](n4cc(C5=CCNC5)c5c(N)ncnc54)[C@@H](F)[C@@H]3O)cc2n1		
≤ 100 nM	≥ 1000 nM	CNc1ccc2cc(OC[C@H]3O[C@@H](n4cc(C)c5c(N)ncnc54)[C@H](O)[C@@H]3O)ccc2n1		
≤ 100 nM	≥ 1000 nM	CNc1ccc2ccc(OC[C@H]3O[C@@H](n4cc(C5CCN(C)C5)c5c(N)ncnc54)[C@@H](F)[C@@H]3O)cc2n1 (stereo partly drawn)		
≤ 100 nM	≥ 1000 nM	CCNc1ccc2ccc(OC[C@H]3C[C@@H](n4ccc5c(N)ncnc54)[C@H](O)[C@@H]3O)cc2n1		
